Experimental data published in PMC4336329 (PLoS ONE, 2015).
About 2,200 (0.71%) of roughly 310,000 compounds showed an effect of 50% or more. Effects have a minus sign here. The list shows a part of the results.

Target: human ether-à-go-go-related gene (hERG) potassium channel (human, UniProt Q12809)
Test: primary screen, population patch clamp on CHO cells stably expressing hERG

Chain of human ether-à-go-go-related gene (hERG) potassium channel (Q12809 whole entry, looked up): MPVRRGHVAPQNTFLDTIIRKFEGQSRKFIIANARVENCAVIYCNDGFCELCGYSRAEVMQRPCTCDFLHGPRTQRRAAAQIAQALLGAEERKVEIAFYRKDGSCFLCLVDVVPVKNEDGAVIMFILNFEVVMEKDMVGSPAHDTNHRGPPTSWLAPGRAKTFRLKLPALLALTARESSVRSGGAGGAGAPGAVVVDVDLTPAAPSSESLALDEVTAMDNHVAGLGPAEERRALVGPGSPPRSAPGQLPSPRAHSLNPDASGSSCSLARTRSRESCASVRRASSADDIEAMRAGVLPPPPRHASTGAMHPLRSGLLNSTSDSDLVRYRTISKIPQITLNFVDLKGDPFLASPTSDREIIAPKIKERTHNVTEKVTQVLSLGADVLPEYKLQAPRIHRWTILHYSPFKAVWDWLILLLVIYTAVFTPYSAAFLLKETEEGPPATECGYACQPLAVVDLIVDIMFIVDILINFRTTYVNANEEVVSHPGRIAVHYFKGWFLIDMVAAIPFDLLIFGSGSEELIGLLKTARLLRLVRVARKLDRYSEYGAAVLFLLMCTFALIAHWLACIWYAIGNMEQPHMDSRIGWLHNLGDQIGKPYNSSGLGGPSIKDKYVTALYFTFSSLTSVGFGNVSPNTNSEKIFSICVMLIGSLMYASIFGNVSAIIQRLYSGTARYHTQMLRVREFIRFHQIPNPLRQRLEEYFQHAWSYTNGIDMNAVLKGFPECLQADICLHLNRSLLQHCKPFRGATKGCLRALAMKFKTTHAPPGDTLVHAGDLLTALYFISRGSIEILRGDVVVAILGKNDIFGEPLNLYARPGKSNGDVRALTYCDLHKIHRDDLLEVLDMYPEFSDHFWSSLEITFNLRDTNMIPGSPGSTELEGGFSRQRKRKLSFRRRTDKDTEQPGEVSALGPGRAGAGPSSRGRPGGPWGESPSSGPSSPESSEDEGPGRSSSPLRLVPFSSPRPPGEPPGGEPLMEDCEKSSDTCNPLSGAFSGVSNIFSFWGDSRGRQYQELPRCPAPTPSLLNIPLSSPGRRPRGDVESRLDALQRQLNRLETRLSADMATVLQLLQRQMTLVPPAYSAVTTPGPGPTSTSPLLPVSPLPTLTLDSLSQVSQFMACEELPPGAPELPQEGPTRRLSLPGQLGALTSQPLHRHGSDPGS

Structure (SMILES) | hERG current change (%, negative = inhibition) at 1uM
C[C@]12C[C@H](O)[C@H]3[C@@H](CCC4=CC(=O)CC[C@@]43C)[C@@H]1CC[C@@H]2C(=O)CO | 8.41%
Cc1ccc2cc(C#N)c(N3CCCN(C(=O)C4CCCO4)CC3)nc2c1 (stereo not shown) | -0.416%
COc1cc(-c2nnc(NC(=O)CCS(=O)(=O)c3ccccc3)o2)cc(OC)c1OC | 8.18%
O=S(=O)(Nc1ccc(S(=O)(=O)N2CCOCC2)cc1)c1ccc(Br)cc1 | -0.287%
Cc1ccc(S(=O)(=O)N(C)CCCC(=O)NCc2ccc3c(c2)OCO3)cc1 | 1.55%
CC1(C(=O)NNC(=O)c2ccc([N+](=O)[O-])cc2)CC1(Br)Br (stereo not shown) | 15.1%
CCOc1cc(CNc2ccccc2)cc(Br)c1OCc1ccc(F)cc1 | 16.2%
O=C(Nc1cccc(O)c1)c1cc2nc(-c3ccccc3)cc(-c3ccccc3)n2n1 | 9.81%
O=C1C2=C(NC(=S)NC2c2ccc(Cl)cc2)NC(c2ccc(Cl)cc2)N1c1ccc(Cl)cc1 (stereo not shown) | 7.66%
COc1ccc(-c2noc(-c3ccccc3C(=O)NCC3CCCO3)n2)cc1 (stereo not shown) | -10.5%
O=C(CNCC1CCCO1)NCc1ccco1.O=C(O)C(=O)O (stereo not shown) | 16.6%
Cn1c(-c2sc3cc(C(F)(F)F)cnc3c2-c2cccnc2)n[nH]c1=S | 17.2%
Cc1nc2ccc(S(=O)(=O)Nc3ccc(-c4nc5cccnc5s4)cc3)cc2s1 | 10.3%
CCOc1ccc(CC(=O)N/N=C(\C)c2cccnc2)cc1 | 12.1%
CCC1ON(C(C)C)C2c3nc4ccccc4n3CC12 (stereo not shown) | 16.1%
Nc1cc(=O)[nH]c(SCC(=O)Nc2cc(Cl)cc(Cl)c2)n1 | 12.8%
Cc1cccc(NC(=O)c2ccc3c(c2)OCCO3)n1 | 8.09%
CCC(=NC1CC(C)(C)NC(C)(C)C1)C1=C(O)CC(C)(C)CC1=O | 14.8%
COc1ccc(-c2cc3cc(C(=O)[O-])ccn3c2C(=O)c2ccccc2)cc1.O | 18.3%
CCOc1ccc(S(=O)(=O)N(CC(=O)N2CCc3ccccc32)Cc2ccco2)cc1 | 6.76%
CSc1ccccc1C(=O)Nc1ccc(S(=O)(=O)NC2=NCCCCC2)cc1 | 9.56%
CCn1c(SCC(=O)N2CCCC2)nnc1-c1ccco1 | 10.4%

Structure (SMILES) | hERG current change (%, negative = inhibition) at 1uM
O=C(O)CCS(=O)(=O)c1ccccc1Cl | 16.4%
O=C(CCNc1n[nH]c(=O)[nH]c1=O)N/N=C/c1ccc(Cl)cc1 | 15%
CC(C)c1cc(C(=O)Nc2cccc(Cl)c2)no1 | 6.75%
CNS(=O)(=O)c1ccc(N=Cc2c(O)n(-c3ccc(C)cc3)c(=O)[nH]c2=O)cc1 | 10.8%
Cc1cc(S(=O)(=O)NCc2ccccc2)ccc1OCC(=O)N1CCN(C)CC1 | 15.5%
N=c1c(-c2nc3ccccc3[nH]2)cc(C(=O)c2ccco2)nn1-c1ccccc1 | -29.5%
CS(=O)(=O)N1CCCC(C(=O)N2CCN(c3cccc(Cl)c3)CC2)C1 (stereo not shown) | 7.48%
COc1ccccc1NC(=O)c1ccc([N+](=O)[O-])cc1[N+](=O)[O-] | 1.46%
C/C(=N/NC(=O)c1ccc(-c2ccccc2)cc1)c1cc(O)cc(O)c1 | 10.5%
Cc1cc(SCc2ccc(Cl)cc2Cl)nc(=O)[nH]1 | 3.58%
Cc1nc2ccccc2n1CC(O)COc1ccccc1Cl (stereo not shown) | 7.5%
CN1CC(=O)N2C(c3cccc([N+](=O)[O-])c3)c3[nH]c4ccccc4c3C[C@H]2C1=O (stereo partly shown) | 19.2%
CN1CCN(CCCNC(=O)c2ccc3c(c2)N(Cc2ccc(F)cc2)CCS3)CC1 | 13.2%
O=C(c1nc2ccccc2s1)N1CCSCC1 | 11.6%
CCCCn1c(N)c(N(CCOC)C(=O)c2cc(Cl)nc3ccccc23)c(=O)[nH]c1=O | 9.65%
O=C(O)c1ccc(C(=O)O)c(C(=O)c2ccccc2)c1 | 7.13%
COc1cccc(C(NC(=O)c2ccccc2F)NC(=O)c2ccccc2F)c1 | -0.0196%
COCCn1c(C)nc2oc3ccc(Br)cc3c(=O)c2c1=O | -14.5%
Br.CCCn1c(=N)n(CC(=O)OCC)c2ccccc21 | 13.4%
COCCN1CCc2c(C)nc3c(-c4ccc(OC)c(OC)c4)cnn3c21 | 1.67%
N#CCSc1nnc(-c2c[nH]c3ccccc23)o1 | 10.9%
C=CCNC(=O)CCCOc1cccc(C)c1 | 14%

Structure (SMILES) | hERG current change (%, negative = inhibition) at 1uM
CCCn1c(SCC(=O)N2CCCc3ccccc32)nnc1-c1ccco1 | 3.19%
CS(=O)(=O)c1ccc2nc(NC(=O)c3cc([N+](=O)[O-])cc([N+](=O)[O-])c3)sc2c1 | 13.5%
CN(CCC(=O)Nc1ccc(Br)cc1)Cc1ccccc1 | -9.25%
CN(CC(=O)Nc1cccc(F)c1)CC(=O)Nc1cccc(S(N)(=O)=O)c1 | 5.95%
COc1ccccc1/C=N/NC(=O)C1=NNC(c2ccccc2)(c2ccccc2)C1 | 9.85%
CCN(CC)CCSc1nnc2c3ccccc3n(CCc3ccccc3)c2n1 | -18.1%
COc1ccc(CCN2CCCn3c2nc2c3c(=O)[nH]c(=O)n2C)cc1OC | 6.45%
CSCC[C@H](NS(=O)(=O)c1ccc(C)cc1)C(=O)N1CCC(C(=O)N[C@H](C(=O)O)c2ccccc2)CC1 | 2.19%
CC(C)(C)NC(=O)NC(=O)CN1c2cccc3cccc(c23)S1(=O)=O | 16.2%
Cc1ccccc1NC(=O)NC1(C(=O)N2CCC(C(N)=O)CC2)CCCCC1 | 10.2%
Cc1ccc(NC(=O)Cn2ncc3c([nH]c4ccccc43)c2=O)cc1Cl | 22.3%
CC1(C)C(=O)Nc2ccccc2N1C(=O)COC(=O)CCSc1ccccc1 | -11.4%
Cc1ccccc1-n1ncc2c([N+](=O)[O-])cc([N+](=O)[O-])cc21 | 7.78%
COC(CNC(=O)C(=O)Nc1cc2c3c(c1)CCN3C(=O)CC2)OC | 33.5%
CCOC(=O)c1cc2c(=O)n3ccccc3nc2n(Cc2ccco2)c1=NC(=O)c1ccccc1OCC | -7.63%
CCOc1ccc(N(CC(=O)NC2CCCC(C)C2C)S(=O)(=O)c2c(C)noc2C)cc1 (stereo not shown) | 1.42%
COc1cccc2sc(N(CCN(C)C)C(=O)c3ccc(S(=O)(=O)N4CCCC4)cc3)nc12.Cl | -5.02%
N#C/C(=C/c1cccn1-c1cccc(C(=O)O)c1)c1ccc(Cl)cc1 | 14.4%
CCOC(=O)c1sc(NC(=O)c2cc(S(=O)(=O)N3CCOCC3)ccc2C)nc1C | 0.945%
COc1ccc(Nc2nc(N)nc(CSC(=S)N3CCN(C)CC3)n2)cc1 | 4.03%
O=C(CO/N=C/c1cccc([N+](=O)[O-])c1)Nc1ccc2ccccc2c1 | 9.73%
COc1cccc(C(C2C(=O)CC(C)(C)CC2=O)C2C(=O)CC(C)(C)CC2=O)c1 | 17.8%

Structure (SMILES) | hERG current change (%, negative = inhibition) at 1uM
Cc1ccccc1C(=O)Nc1ccnn1C1CCN(Cc2cccnc2)CC1 | -48.9%
COc1cccc(-c2n[nH]c(=S)n2Cc2ccco2)c1OC | 8.67%
COC(c1ccccc1)c1nnc(CCC(=O)NCCC(C)C)o1 (stereo not shown) | 13.7%
Cc1ccc(S(=O)(=O)NN2C(=O)/C(=C/c3ccc(C(=O)O)cc3)SC2=S)cc1 | 16.6%
CCOc1ccc(C2=C/C(=C/c3cccnc3)C(=O)O2)cc1 | 3.66%
CSc1cccc(NC(=O)C2CCCN2S(=O)(=O)c2ccc(Br)s2)c1 (stereo not shown) | 15%
Cc1ccc(CNC(=O)C(=O)NCC2OCCN2S(=O)(=O)c2cccs2)cc1 (stereo not shown) | 8.55%
COc1cc(OC)c(OC)cc1/C=C1\SC(N2CCCCC2)=NC1=O | 16.5%
COc1ccccc1NC(=O)c1ccccc1C(=O)O | 16.9%
COC(=O)C1=C(C)Nc2nc(-c3ccccc3)nn2C1c1ccc(C)o1 (stereo not shown) | -0.721%
Cc1ccnc(NC(c2ccncc2)c2c(C)[nH]c3ccccc23)c1 (stereo not shown) | 7.78%
O=C(CN1CCN(c2ccccc2)CC1)Nc1scc2c1c(=O)oc1ccccc12 | 13.2%
c1ccc(CCNc2nc3ccccc3n3nnnc23)cc1 | 6.12%
CCOC(=O)c1ccc(Cn2cnc3ccccc3c2=O)cc1 | 6.92%
COc1cc(OC)c(S(=O)(=O)Nc2ccc(C(=O)O)cc2)cc1S(=O)(=O)Nc1ccc(C(=O)O)cc1 | 11.9%
COc1ccc(C)cc1N(CC(=O)NCCSCc1ccco1)S(=O)(=O)c1ccc(C)cc1 | 11.2%
Nc1cncc(C(=O)O)c1 [24817409] | 14.4%
C=CCc1c(OC(C)=O)c2ccccc2n(C)c1=O | 12.1%
CC(C)N(C)C1CCN(C(=O)Nc2ccc(Cl)c(Cl)c2)CC1 | -19.5%
